Laboratory results: the supplement of paper PMC11417369
Some of the results follow.

System: PfHDP1 homeodomain (GST-tagged)
Experiment: gcPBM binding intensity (ln(normalized median fluorescence intensity)); higher = stronger DNA binding
Outline: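 For binding intensity, the highest Masliner-normalised natural-log median intensity across replicate spots of either probe orientation was taken. Protein bound to the array was stained with Alexa488 anti-GST antibody and scanned at 488 nm. The protein, GST-tagged P. falciparum DNA-binding domains from E. coli at about 25 μg on average, had been applied for 1 h to an Agilent 4 × 180k array of primer-extended double-stranded 36-bp intergenic genomic probes and negative controls.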

Point of comparison: “ATACCCACTTAAAATACACACACACCGAAAAAAAAA [CACACA_site8867]”, “gcPBM binding intensity (ln)” value 6.73. Against it:
- GTGAGCTCAGACTACACACACAAAGAAAAAAATAAA [CACACA_site1553] — lower, 6.56
- TATATAAACACGTACACACACATATCTGTATTTATA [CACACA_site5858] — higher, 7.01
- AATACCTACCAAACATGTACATACGCTTCTCAAATA [XGTACX_site5535] — higher, 6.83
- ATACAACAAAAATAAGCACACACAAATATACATACA [CACACA_site9201] — higher, 6.88
- AACAAATACAGACACACACACACACCCAAAAAAAAA [CACACA_site515] — higher, 6.75
- ATAAAAATTTAAAAAGAACACACGAAAGAAGGACTT [CACACA_site3929] — higher, 7.03
- TATTGTTCTTATTTAGTGCATATATAATATAATATA [GTGCAC_site9827] — higher, 8.85
- ATGTTCTTATTATTGGTGCAAGAATACACAAGAAAA — higher, 9.55
- TATGTGAATAAATAAGCACACATAAACACATATATA [CACACA_site9359] — lower, 6.71
- AACACATAATAAAATTGTACCCAACATTTCTTTTGA [XGTACX_site8061] — lower, 6.19
- AATAAGAGGATACATTGTACATAAAAAAAAAAAATA [XGTACX_site1815] — lower, 6.5
- TTTTGAAGCTTTAAAACATATATATATATATATATA [CACACA_negctrl_site184] — higher, 9.53
- AGCAAAACAAAAAAATTAAAATTAACATATAATCAT [GTGCAC_negctrl_site393] — lower, 6.17
- GTGTATAGAATGGTTTCTTTTAAGGTTTTTATTTTT [CACACA_negctrl_site564] — higher, 6.8
- AGGTTCTTTTTAAATGGTACACATAATTTGAAGATA [XGTACX_site400] — lower, 6.57
- TCTTAAAAGGGGAATGGAATGGAGAAAATGAAATAA [GTGCAC_negctrl_site30] — lower, 6.51
- AATATTTTCTTGTACGCATGCACATCCAAATTATAT [TGCATGCA_site873] — higher, 7.81
- TGACCTGTTCAGGTAACACACATATAAACACATACA [CACACA_site4186] — higher, 6.86
- ATATATTAATAATTTTGTACGCATTTCCTTTTTATT [XGTACX_site1638] — higher, 6.86
- GAAAATATTTCCGTATGTACTTATTTTAGTCTACTA [XGTACX_site471] — lower, 6.06
- AAAAAAAAAAAAAAATGTACAAATAAAGAAATATGA [XGTACX_site4371] — lower, 6.45
- CTTTTTATTTAGAACACACACAAAAAAAAAAAAAAA [CACACA_site1761] — lower, 6.4
- ATACATAAATATATATGTACATATATATATATATAT [XGTACX_site1055] — higher, 9.19
- TGCAGTCTGGAGAAACGTACATAGTATCTGGTAGCT [XGTACX_site4937] — lower, 6.26
- AAAATATATTTAAATTGTACACGTTACCATAACAAT [XGTACX_site2598] — higher, 6.75
- ATGAATACAAAATTATACAAAATTATCAAAAGTATG [CACACA_negctrl_site1453] — lower, 6.26
- TAATTCTAAATAAATGTACACACAAAAATAAATGTA [CACACA_site8509] — lower, 6.64
- CTATTTTATATGTGCACACATATACACCCACAAATA [CACACA_site1131] — higher, 10.1
- TTGATAAAATGGGAGAAATTAAAAAGGAAAAAAAAA [CACACA_negctrl_site1279] — lower, 5.77
- TTATAAAATTTTCTTCTATATTTTAATTATTCTCAT [TGCATGCA_negctrl_site571] — lower, 6.42
- TATATATATATTATATGTACATAAATATTTATACTC [XGTACX_site114] — higher, 8.24
- ATTAAAAGAACCAAGTGTACATTCTATATATAAAAA [XGTACX_site4260] — lower, 6.34
- TATACAATATATTTTGGTACACAAACAAAAAAATAT [XGTACX_site2522] — lower, 6.55
- ATATTATGATCTATTTTTATATTCTATTTGATAAAT [CACACA_negctrl_site1070] — lower, 6.47
- GTTCACCAAAGGTAACGTACACAAACATATATATAT [XGTACX_site1073] — higher, 8.66
- GAAAAAGACAAAAGGTGTACAATATGAAATATATAT [XGTACX_site373] — higher, 6.81
- TATGATTTTAACAACTGTACAATATAATAAATCTAA [XGTACX_site2198] — lower, 6.15
- TGGGTCTCTAACTGGTGTACTATTTACATATTATAC [XGTACX_site8593] — higher, 6.86
- TAAAAGAAAAATTAGTGTACCAATATTAACATAAAA [XGTACX_site5474] — lower, 6.09
- ATATATTTTTAATTACGTACTTAATAATATATACAA [XGTACX_site3285] — lower, 6.43
- TCTCATAGGAAACACACACACACACCCACATATATA [CACACA_site1738] — higher, 6.97
- TAAATAAAAAAAAAAAGTACATACATACAAACATAT [XGTACX_site4427] — lower, 6.52
- ATATATGTGCGCGTATGTACATAAAATAAATATACA [XGTACX_site2689] — higher, 7.55
